Assay results as given in PubChem BioAssay AID1466 (National Center for Advancing Translational Sciences (NCATS), 2008).
In all, about 200,000 compounds went through this assay and about 10 (0.005%) were called active. Inconclusive means that the source gave no clear call. Such entries were picked first, then a sample of the others. Calls follow the shape of the dose curve; as a rule, active = well fitted inhibition curve with a large enough effect; inconclusive = small, poorly fitted or top-dose-only effect, or effect the other way, or another doubt; inactive = no such curve, though single readings can be large or run the other way. No potency is given beside an inconclusive call; the fits are too rough.
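For activity change, negative = inhibition in this document: plate controls were uninhibited enzyme wells for no effect and no-enzyme background for full effect.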
Potency is read from the fitted curve at half-maximal effect; tags tell the direction and shape of the fitted curve.

The compounds below were run against Lysosomal alpha-glucosidase (Homo sapiens) (UniProt P10253) (assay: qHTS Assay for Inhibitors of Human alpha-Glucosidase as a Potential Chaperone Treatment of Pompe Disease). Conditions: purified human GAA, 4-MU-alpha-glucoside fluorescence; activity change, negative = inhibition: at 76.9 µM (top of the series) unless noted.
Text: NIH Chemical Genomics Center [NCGC] NIH Molecular Libraries Probe Production centers Network [MLPCN] MLPCN Grant: 1R03MH084841-01 Assay Submitter (PI): Wei Zheng NCGC Assay Overview: Alpha-glucosidase is responsible for hydrolysis of terminal, non-reducing 1,4-linked alpha-D-glucose residues with release of alpha-D-glucose. It is a lysosomal hydrolase that is required for the degradation of a small percentage (1-3%) of cellular glycogen in human. Deficiency of this enzyme results in glycogen-storage disease type II (GSDII), also referred to as Pompe disease, an autosomal recessive disorder. Structurally normal glycogen is accumulated in lysosomes and cytoplasm in affected patients, primarily in muscle tissues. Excessive glycogen storage within lysosomes may interrupt normal functioning of other organelles and leads to cellular injury. In turn, this leads to enlargement and dysfunction of the entire organ involved (eg, cardiomyopathy and muscle weakness). It has reported that the improper folding and trafficking of alpha-glucosidase resulting from the genetic mutations may account for a significant number of Pompe patients. […] We optimized this alpha-glucosidase assay in 1536-well plate format for identifying the novel small molecule inhibitors with the structures other than the sugar analogs in order to develop the new pharmacological chaperones.
NCGC Assay Protocol Summary: This is a fluorogenic enzyme assay with 4-methylumbelliferyl-alpha-D-[…] as the substrate and human alpha-glucosidase as the enzyme preparation. Upon the hydrolysis of this fluorogenic substrate, the resulting product, 1. 4-methyllumbelliferone, can be excited at 365 nm and emits at 440 nm which can be detected by a standard fluorescence plate reader. Data were normalized to the controls for basal activity (without enzyme) and 100% activity (with enzyme). In the AC50 values were determined from concentration-response data modeled with the standard Hill equation. Assay buffer: 50 mM citric acid (titrated with potassium phosphate to pH 5.0), 0.005% Tween-20, pH 5.0. (pH 5.0 is an optimal condition for this enzyme assay) 1536-well assay protocol for the human alpha-glucosidase: (1) Add 2 ul/well of enzyme (4 nM final) (2) Add 23 nL compounds in DMSO solution. The final titration was 0.7 nM to 77 uM. (3) Add 1 ul of substrate (400 uM final) (4) Incubate at room temperature for 20 min. (5) Add 2 ul stop solution (1M NaOH and 1M Glycine mixture, pH 10) (6) Detect the assay plate in a ViewLux plate reader (PerkinElmer) with Ex=365 nm and Em=440nm. Keywords: Alpha-glucosidase, Pompe Disease, pharmacological chaperone, chaperone therapy, high throughput screening, alpha-glucosidase inhibitor, MLSMR, MLSCN, NIH Roadmap, qHTS and NCGC
In the case of `COc1ccc(Nc2nc(Nc3ccc(OC)cc3)nc(-n3[nH]c(=O)c(C)c3C)n2)cc1`, the activity change, negative = inhibition is reported as inconclusive: -15.8% [inhibitor]. In the case of `CC(c1ccc(F)cc1)n1cc(C(=O)NCCN(C)C)nn1` (stereo not drawn), the activity change, negative = inhibition is reported as inconclusive: 15.7% [activator]. In the case of `Cc1cccc2cc(C(c3nnnn3C(C)(C)C)N3CCN(C(=O)c4ccco4)CC3)c(=O)[nH]c12` (stereo not drawn), the Potency is reported as “inactive”. In the case of `Cc1ccc(C)c(NS(=O)(=O)c2ccc3[nH]c(=O)oc3c2)c1`, the Potency is reported as inconclusive [activator, full curve, poor fit]. `O=C(COC(=O)[C@H](Cc1ccccc1)NC(=O)c1cccs1)Nc1ccccc1C(F)(F)F` was tested, and the Potency was inconclusive [inhibitor, single point]. In the case of `Cn1c(CCNC(=O)c2ccc(F)cc2)nc2ccccc21`, the Potency is reported as inconclusive [inhibitor, single point]. For `O=C(CSc1nnc2n(C3CCCCC3)c(=O)c3ccccc3n12)OC1CCCCC1`, the Potency was inconclusive [inhibitor, single point]. `CCc1sc(C(=O)Nc2cccc(C(C)=O)c2)cc1C` was tested, and the activity change, negative = inhibition was inconclusive: -15.6% [inhibitor]. In the case of `O=C(NCCCN1CCCCC1)c1ccc2c(=O)n(CCc3ccccc3)c(=O)[nH]c2c1`, the Potency is reported as inconclusive [activator, partial curve]. For `O=c1[nH][nH]c2cc(=O)n(-c3cccc(C(F)(F)F)c3)nc12`, the Potency was inconclusive [inhibitor, partial curve]. In the case of `c1ccc(CN2c3ccccc3-c3nc4ccccc4n3C2c2ccccn2)cc1` (stereo not drawn), the Potency is reported as inconclusive [activator, partial curve]. In the case of `CC(=O)c1coc2c1cc(O)c1ccccc12`, the Potency is reported as “inactive”. With `CCOC(=O)CN(C(=O)CSc1nnc2c(n1)[nH]c1ccc(F)cc12)c1ccccc1` the Potency was inconclusive [inhibitor, single point]. `O=C(CSc1nnc2ccccn12)Nc1ccccc1C(=O)NC1CC1` was tested, and the Potency was inconclusive [activator, full curve, poor fit]. With `Cn1c(C(=O)N2CCCCCC2)cc2c(=O)n(C)c3ccccc3c21` the Potency was inconclusive [inhibitor, full curve, poor fit]. `COc1ccc(N/C(=N\c2nc(C)cc(C)n2)NC(=O)C(C)C)cc1OC` was tested, and the Potency was inconclusive [inhibitor, single point]. With `Cc1ccc(S(=O)(=O)c2c(N)n(CCCO)c3nc4ccccc4nc23)cc1` the Potency was inconclusive [activator, partial curve]. `CC(NC(=O)COc1ccc(-c2nnco2)cc1)c1ccc(Cl)cc1Cl` (stereo not drawn) was tested, and the Potency was inconclusive [inhibitor, partial curve, poor fit].
